In all, about 310,000 compounds went through this assay and about 2,200 (0.71%) showed an effect of 50% or more. Effects have a minus sign here. This is one part of the list.
target: human ether-à-go-go-related gene (hERG) potassium channel (human, UniProt Q12809); experiment: primary screen, population patch clamp on CHO cells stably expressing hERG
Sequence (Q12809 whole entry, looked up): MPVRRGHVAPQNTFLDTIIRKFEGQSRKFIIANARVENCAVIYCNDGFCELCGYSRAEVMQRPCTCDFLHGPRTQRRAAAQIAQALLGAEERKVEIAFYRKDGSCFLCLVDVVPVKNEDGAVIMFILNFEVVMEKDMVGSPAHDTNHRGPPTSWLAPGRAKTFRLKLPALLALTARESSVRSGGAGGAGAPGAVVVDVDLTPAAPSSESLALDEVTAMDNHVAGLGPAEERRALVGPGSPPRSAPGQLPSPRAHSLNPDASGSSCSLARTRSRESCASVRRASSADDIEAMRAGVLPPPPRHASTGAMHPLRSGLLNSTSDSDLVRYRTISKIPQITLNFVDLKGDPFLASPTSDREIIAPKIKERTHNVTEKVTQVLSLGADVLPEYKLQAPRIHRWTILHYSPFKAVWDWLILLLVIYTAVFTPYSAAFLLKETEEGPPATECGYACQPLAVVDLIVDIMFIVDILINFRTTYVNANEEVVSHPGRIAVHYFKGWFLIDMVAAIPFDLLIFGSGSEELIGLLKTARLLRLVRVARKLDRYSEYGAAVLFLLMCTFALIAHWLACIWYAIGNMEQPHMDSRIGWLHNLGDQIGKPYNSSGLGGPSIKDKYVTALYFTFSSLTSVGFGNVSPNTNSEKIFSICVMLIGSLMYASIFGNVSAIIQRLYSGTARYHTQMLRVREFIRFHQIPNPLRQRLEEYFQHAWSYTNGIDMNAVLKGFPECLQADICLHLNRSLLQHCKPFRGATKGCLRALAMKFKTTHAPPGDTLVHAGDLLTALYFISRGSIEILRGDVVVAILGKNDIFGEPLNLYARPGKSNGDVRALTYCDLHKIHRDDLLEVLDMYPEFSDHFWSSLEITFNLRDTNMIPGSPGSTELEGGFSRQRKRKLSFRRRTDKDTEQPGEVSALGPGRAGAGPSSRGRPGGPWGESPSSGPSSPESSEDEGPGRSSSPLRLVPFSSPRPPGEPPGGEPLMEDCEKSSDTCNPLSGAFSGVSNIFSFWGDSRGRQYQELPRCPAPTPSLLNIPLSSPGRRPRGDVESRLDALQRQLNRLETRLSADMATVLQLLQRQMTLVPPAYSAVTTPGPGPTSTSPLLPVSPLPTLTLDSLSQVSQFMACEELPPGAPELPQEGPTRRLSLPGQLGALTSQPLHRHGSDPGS

Row | SMILES | hERG current change (%, negative = inhibition) at 1uM [%]
1 | Cc1onc(-c2ccccc2)c1C(=O)NCc1ccc2c(c1)OCO2 | 11.3
2 | Cc1ccc(C)c(OCc2cc(C(=O)N3CCc4sccc4C3)no2)c1 | 16.5
3 | CCN(CC(=O)Nc1c(F)cccc1F)C(=O)C1CC(=O)N(CCc2ccc(OC)c(OC)c2)C1 (stereo not drawn) | 14
4 | CC(C)(C)c1ccc(S(=O)(=O)n2c(CN3CCOCC3)nc3ccccc32)cc1 | 10.3
5 | CC(C)[C@H](NC(=O)c1ccccc1)C(=O)OCC(=O)c1ccccc1F | 7.34
6 | O=C(c1ccc2nc(N3CCOCC3)sc2c1)N1CCN(c2ccc(Cl)cc2)CC1 | 1.9
7 | COCCCN1C(=O)c2ccc(C(=O)Nc3cccc(OC)c3)cc2C1=O | 1.72
8 | Nc1nc(NCC(=O)O)nc(NC2CCCCC2)c1[N+](=O)[O-] | 10.2
9 | OCCC#Cc1ccc(CN2CCN(CCc3ccccc3)C(CCO)C2)cc1 (stereo not drawn) | 6.56
10 | CCN(CC)C(=O)C1CCCN(Cc2sccc2C)C1 (stereo not drawn) | 15.1
11 | Cc1[nH]c2ccccc2c1/C=N/Nc1ccccc1[N+](=O)[O-] | 13.6
12 | CC#CP(=O)(OCC)C(O)(c1ccccc1)C(F)(F)F (stereo not drawn) | 5.8
13 | Cc1cccc(NC(=O)c2cccc(C(=O)Nc3cccc(C)c3)n2)c1 | 10.4
14 | CC(C)Cn1c(N)c(C(=O)COC(=O)c2cc(F)cc(F)c2)c(=O)n(C)c1=O | -1.94
15 | COCCn1c(SCC(=O)N2CC(=O)Nc3ccccc32)nc2ccccc21 | 5.88
16 | CSc1nsc(SC)c1NC(=O)N1CCCC1 | -4.85
17 | CCOC(=O)c1c(NC(=S)NC(=O)c2ccc(Cn3cc(Cl)cn3)o2)sc2c1CCCCC2 | 12.8
18 | Oc1ccc(/C=N/NC(=S)NCC2CCCO2)cc1 (stereo not drawn) | 7.36
19 | Cc1ccc(Cl)cc1NC(=O)CN1C(=O)COc2ccc(S(=O)(=O)N3CCOCC3)cc21 | 13.5

Row | SMILES | hERG current change (%, negative = inhibition) at 1uM [%]
20 | CN(Cc1ccccc1NS(=O)(=O)c1ccc(Cl)cc1)C1CCCCC1.Cl | -1.68
21 | CCCN(CCC)C(=O)Nc1cc(Cl)ccc1OC | 14.4
22 | CCCS(=O)(=O)c1c(S(=O)(=O)CCC)c2c(C)cccn2c1C(=O)OC | 15.1
23 | COc1cccc(CNC(=O)CCC2CCCN(c3cc(C)nc(N(C)C)n3)C2)c1 (stereo not drawn) | -27.7
24 | CCc1ccc(S(=O)(=O)Nc2c(C)nn(C)c2C)cc1 | 8.06
25 | NC(=O)C1CC(=O)N(c2ccc(OCc3c(F)cccc3Cl)cc2)C1 (stereo not drawn) | 9.68
26 | CC(C)(C)[C@H]1C=C(C(=O)O)O[C@@H](OCc2ccc(CO)cc2)C1 | 19.2
27 | Cc1cc(C(=O)NCc2ccccc2F)cs1 | -1.56
28 | Cc1c(Cl)cccc1-c1ccc(/C=N/n2cnnc2)o1 | -9.8
29 | COc1ccccc1C1/C(=C(/O)c2ccccc2)C(=O)C(=O)N1CC(C)O (stereo not drawn) | 12.9
30 | Clc1ccc2nc(CSc3ncn[nH]3)cn2c1 | 3.81
31 | O=C(COC(=O)c1ccc(Cl)nc1)NNC(=O)c1ccc(Cl)cc1 | 14.8
32 | CC(=O)Nc1cc([N+](=O)[O-])ccc1N1CCOCC1 | 6.81
33 | CC(C)=CCc1cc(-c2oc3cc(O)cc(O)c3c(=O)c2O)ccc1O | 9.77
34 | COCCN1CCN(C(=O)C2CCC(=O)N(Cc3ccccc3OC)C2)CC1 (stereo not drawn) | 11.4
35 | O=C(CSc1nc(=O)n(CCCN2CCOCC2)c2c1CCCC2)Nc1ccc(F)cc1 | -5.41
36 | O=[N+]([O-])c1ccc(Cc2nnc(-c3ccc(F)cc3)o2)cc1 | -22.1
37 | O=c1[nH]c(CN2CCN(S(=O)(=O)/C=C/c3ccccc3)CC2)nc2cc(Cl)ccc12 | -21.4
38 | CCOc1ccc(-n2c(=O)c3ccccc3c3ccccc3c2=O)cc1 | 11.8

Row | SMILES | hERG current change (%, negative = inhibition) at 1uM [%]
39 | CCCc1cc(=O)oc2cc(OC(C)C(=O)NCC3CCC(C(=O)O)CC3)c(Cl)cc12 (stereo not drawn) | 11
40 | Cc1ccnc(NC(=O)CCNC(=O)c2ccccc2Cl)c1 | 6.85
41 | C=CCNc1ncnc2c1cnn2-c1ccc(C)cc1C | 10.8
42 | CCOc1ncccc1C(=O)OCC(=O)c1cc(C)n(Cc2ccco2)c1C | 5.04
43 | CCCCNc1ncnc2c1cnn2-c1ccc(Cl)cc1 | 14.5
44 | CC(C)c1nc(C(=O)N2CCCC(N3CCN(c4cccc(Cl)c4)CC3)C2)cs1 (stereo not drawn) | -15.5
45 | CC1CCN(C(=O)C2CCN(c3ncnc4c3nc3n4CCCCC3)CC2)CC1 | 7.03
46 | CCCCN(C(=O)c1cc2ccccc2o1)c1c(N)n(CCCC)c(=O)[nH]c1=O | 13.4
47 | C[C@@H]1C=C(C(=O)N2CCN(Cc3ccc4c(c3)OCO4)CC2)O[C@H](OCCCCO)C1 | 9.81
48 | COC(=O)C(NS(=O)(=O)c1ccccc1Br)C(C)C (stereo not drawn) | 8.86
49 | Cc1ccc(CNC(=O)C(=O)NCC2CCCO2)cc1 (stereo not drawn) | 10.8
50 | CC(=O)NC1=NN(C(C)=O)C(c2cccs2)S1 (stereo not drawn) | 20.3
51 | O=C(NCc1n[nH]c(=S)n1-c1ccccc1Cl)c1ccc(S(=O)(=O)N2CCCCC2)cc1 | 15.4
52 | O=C(CBr)N1CCc2ccccc2C(c2ccccc2)C1 (stereo not drawn) | 11.7
53 | COc1ccc(C2/C(=C(/O)c3ccc4c(c3)CC(C)O4)C(=O)C(=O)N2Cc2ccncc2)cc1 (stereo not drawn) | 16
54 | O=CC(Cl)P(=O)(N1CCOCC1)N1CCOCC1 (stereo not drawn) | 10
55 | CCN(CC)C(=O)c1ccc(-c2cccs2)s1 | 14
56 | O=c1c2nccnc2[nH]c(=S)n1Cc1ccccc1 | 0.392
57 | C/C(N)=C(/C#N)C(=O)CSc1n[nH]c(-c2ccccc2Br)n1 | 7.91

Reference: PMC4336329 (PLoS ONE, 2015)
